Measured values from US7354734B2, “Fungal proteins and nucleic acids encoding same” (priority 2003, dated 2008).

System: desMet-G-CSF
Assay: Digestion of desMet-G-CSF with DPPIV
Details: overnight 37° C., E/S 1/20 (w:w)
Description: The freeze-dried material was suspended at a 1 mg/ml concentration in 50 mM Tris-HCl, pH 7.5 containing 0.1% Sarcosyl and incubated overnight at 37° C. with DPPIV at an E/S ratio of 1/20 (w:w). The protein was isolated by RP-HPLC as before and characterized by ESI-MS (FIGS. 13A and B).

ruDPPIV: T. rubrum dipeptidylpeptidase IV (SEQ ID NO: 35)
cleavage of N-terminal dipeptide of desMet-G-CSF: cleavage of the N-terminal dipeptide Thr-Pro
